From US20100210562A1, “USE OF IL-1 RECEPTOR PEPTIDE, ALONE OR IN COMBINATION WITH D-ALA-GLN-OCTADECYL ESTER, AS A THERAPEUTIC AGENT” (priority 2007, published 2010)

Test system: HIV-1IIIB
Assay: HIV-1 antiviral (CPE reduction) assay in CEM-SS cells
Settings: 10 micrograms per ml; 6 days post-infection; MTS readout

Substance | reduction of the cytopathic effect (CPE) in HIV-1 infected CEM-SS cells
D-Ala-Gln-octadecyl ester [Peptide 2] | 100%
Lys-Ile-Cys-Ile-Arg-Ile-Gln-Ile-Ser-OH (KICIRIQIS-OH) [Peptide 1] | 100%

Where no end group is shown, it is not given here.
